Test results from a collection of fitness landscapes (doi:10.1016/j.celrep.2020.107928).
In all, about 81,000 sequences were measured (“one-hybrid fitness for binding NBS DNA”: median about -0.1, highest 2% from about 0.36 on). The list shows a part of the results.

B1: Caulobacter ParB omega fusion; a variant is named by its letters at X, in order, B8GW30 (parent)
chain: MESVVVGEPGMSEGRRGLGRGLSALLGEVDAAPAQAPGEQLGGSREAPIEILQRNPDQPRRTFREEDLEDLSNSIREKGVLQPILVRPSPDTAGEYQIVAGERAWRAAQRAGLKTVPIMVRELDDLAVLEIGIIENVQRADLNVLEEALSYKVLMEKFERTQENIAQTIGKSXSHVANXMRLLXLPDEVQSYLVSGELTAXHARAIAAAADPVALAKQIIEGGLSVRETEALARKAPNLSAGKSKGGRPPRVKDTDTQALESDLSSVLGLDVSIDHRGSTGTLTITYATLEQLDDLCNRLTRGI

Variants of: B1
Assay: one-hybrid fitness for binding NBS DNA (the Noc-binding site; scaled: cognate 1, non-cognate 0); higher = stronger binding
Conditions: with NBS DNA site
How it was run: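 Pre- and post-selection plasmids were Illumina-sequenced, three replicate libraries were pooled, and any variant with under 10 reads was removed. The libraries were Caulobacter ParB with four specificity codons randomised, selected in E. coli USO through a HIS3 reporter whose site is 19 bp from the promoter. Cells grew 48 hours at 37°C on M9 without histidine, with 0.1 mM IPTG and 5 mM 3-AT. Fitness is the log change in variant-to-wild-type read ratio, rescaled against cognate and non-cognate.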

Variant	one-hybrid fitness for binding NBS DNA
QHIG	≤ 0.2
CQFL	≤ 0.2
RSPY	≤ 0.2
RGRP	≤ 0.2
DGLW	≤ 0.2
RNLV	≤ 0.2
AAAP	≤ 0.2
SFMC	≤ 0.2
VCKG	≤ 0.2
FVAR	≤ 0.2
PSVQ	≤ 0.2
RCAC	≤ 0.2
AHAE	≤ 0.2
RNHI	≤ 0.2
VMCT	≤ 0.2
CDED	≤ 0.2
FQPY	≤ 0.2
KKQS	0.216
ITSF	≤ 0.2
NIVC	≤ 0.2
HWNS	≤ 0.2
FNRT	≤ 0.2
LWPE	≤ 0.2
KCEY	≤ 0.2
TNSG	≤ 0.2
TFLW	≤ 0.2

Variant	one-hybrid fitness for binding NBS DNA
CPHR	≤ 0.2
GPMC	≤ 0.2
DQQR	≤ 0.2
TTWL	≤ 0.2
NGWS	≤ 0.2
NEAS	≤ 0.2
STAT	≤ 0.2
QVTW	≤ 0.2
IMEG	≤ 0.2
CVFC	≤ 0.2
SCPR	≤ 0.2
LLMM	≤ 0.2
FGWS	≤ 0.2
YPFR	≤ 0.2
KMSY	≤ 0.2
LSFP	≤ 0.2
VPDG	≤ 0.2
LGDS	≤ 0.2
ARQY	≤ 0.2
NLTY	≤ 0.2
LPVA	≤ 0.2
HALG	≤ 0.2
LHPQ	≤ 0.2
ENKG	≤ 0.2
STMD	≤ 0.2
IGKY	≤ 0.2

Variant	one-hybrid fitness for binding NBS DNA
FQVR	≤ 0.2
YIHK	≤ 0.2
QVMR	0.312
PRTW	≤ 0.2
IFTF	≤ 0.2
WPMG	≤ 0.2
SKGG	≤ 0.2
VPNP	≤ 0.2
RRSM	0.311
RMIE	≤ 0.2
KCNS	≤ 0.2
AAAF	≤ 0.2
RREP	≤ 0.2
GRYS	≤ 0.2
VMQK	≤ 0.2
FFSS	≤ 0.2
HPDL	≤ 0.2
DHQG	≤ 0.2
RNSV	≤ 0.2
PYTG	≤ 0.2
HFNS	≤ 0.2
GVDV	≤ 0.2
CHWG	≤ 0.2
TDTL	≤ 0.2
